B1: GLP-1RA/FGF21 Fc fusion protein SEQ ID NO: 92 (Fc fusion)
chain: HGEGTFTSDLSIQLEEEAVRLFIEWLLATGPVSGAPPPSGGGGGGGSGGGGSGGGGSA[… human IgG4 Fc with changes …]GGGSGSAHPIPDSSPLLQFGGQVRQRYLYTDDACQTEAHLEIREDGTVGGAADQSPESLLQLKALKPGVIQILGVKTSRFLCQRPDGALYGSLHFDPEACSFRELLLEDGYNVYQSEAHGLPLHLPGCKSPHRDPAPRGPARFLPLPGLPPAPPEPPGILAPQPPDVGSSDPLSMVGSQGRSPSYAS
B2: GLP-1RA/FGF21 Fc fusion protein SEQ ID NO: 100 (Fc fusion)
chain: HGEGTFTSDLSKQLEEEAVRLFIEWLLATGPSSGEPPPEGGGGGGGSGGGGSGGGGSA[… human IgG4 Fc with changes …]GGGSGSAHPIPDSSPLLQFGGQVRQRYLYTDDACQTEAHLEIREDGTVGGAADQSPESLLQLKALKPGVIQILGVKTSRFLCQRPDGALYGSLHFDPEACSFRELLLEDGYNVYQSEAHGLPLHLPGCKSPHRDPAPRGPARFLPLPGLPPAPPEPPGILAPQPPDVGSSDPLSMVGSQGRSPSYAS
B3: GLP-1RA/FGF21 Fc fusion protein SEQ ID NO: 93 (Fc fusion)
chain: HGEGTFTSDLSIQLEEEAVQEFIEWLLATGPVSGAPPPSGGGGGGGSGGGGSGGGGSA[… human IgG4 Fc with changes …]GGGSGSAHPIPDSSPLLQFGGQVRQRYLYTDDACQTEAHLEIREDGTVGGAADQSPESLLQLKALKPGVIQILGVKTSRFLCQRPDGALYGSLHFDPEACSFRELLLEDGYNVYQSEAHGLPLHLPGCKSPHRDPAPRGPARFLPLPGLPPAPPEPPGILAPQPPDVGSSDPLSMVGSQGRSPSYAS
B4: GLP-1RA/FGF21 Fc fusion protein SEQ ID NO: 97 (Fc fusion)
chain: HGEGTFTSDLSILLEEEAVRLFIEWLLATGPVSGAPPPSGGGGGGGSGGGGSGGGGSA[… human IgG4 Fc with changes …]GGGSGSAHPIPDSSPLLQFGGQVRQRYLYTDDACQTEAHLEIREDGTVGGAADQSPESLLQLKALKPGVIQILGVKTSRFLCQRPDGALYGSLHFDPEACSFRELLLEDGYNVYQSEAHGLPLHLPGCKSPHRDPAPRGPARFLPLPGLPPAPPEPPGILAPQPPDVGSSDPLSMVGSQGRSPSYAS
B5: GLP-1RA/FGF21 Fc fusion protein SEQ ID NO: 94 (Fc fusion)
chain: HGEGTFTSDLSIQLEEEAVQLFIEWLLATGPVSGAPPPSGGGGGGGSGGGGSGGGGSA[… human IgG4 Fc with changes …]GGGSGSAHPIPDSSPLLQFGGQVRQRYLYTDDACQTEAHLEIREDGTVGGAADQSPESLLQLKALKPGVIQILGVKTSRFLCQRPDGALYGSLHFDPEACSFRELLLEDGYNVYQSEAHGLPLHLPGCKSPHRDPAPRGPARFLPLPGLPPAPPEPPGILAPQPPDVGSSDPLSMVGSQGRSPSYAS
B6: GLP-1RA/FGF21 Fc fusion protein SEQ ID NO: 101 (Fc fusion)
chain: HAQGTFTSDLSKQLESRRAQEFIEWLLATGPESGAPPPSGGGGGGGSGGGGSGGGGSA[… human IgG4 Fc with changes …]GGGSGSAHPIPDSSPLLQFGGQVRQRYLYTDDACQTEAHLEIREDGTVGGAADQSPESLLQLKALKPGVIQILGVKTSRFLCQRPDGALYGSLHFDPEACSFRELLLEDGYNVYQSEAHGLPLHLPGCKSPHRDPAPRGPARFLPLPGLPPAPPEPPGILAPQPPDVGSSDPLSMVGSQGRSPSYAS
B7: GLP-1RA/FGF21 Fc fusion protein SEQ ID NO: 102 (Fc fusion)
chain: HSQGTFTSDLSKQLESRRARRFIEWLLATGPESGAPPPSGGGGGGGSGGGGSGGGGSA[… human IgG4 Fc with changes …]GGGSGSAHPIPDSSPLLQFGGQVRQRYLYTDDACQTEAHLEIREDGTVGGAADQSPESLLQLKALKPGVIQILGVKTSRFLCQRPDGALYGSLHFDPEACSFRELLLEDGYNVYQSEAHGLPLHLPGCKSPHRDPAPRGPARFLPLPGLPPAPPEPPGILAPQPPDVGSSDPLSMVGSQGRSPSYAS
B8: GLP-1RA/FGF21 Fc fusion protein SEQ ID NO: 105 (Fc fusion)
chain: HGEGTFTSDKSQLLEERLAHLFIEWLIKGGHSSIKPPPKGGGGGGGSGGGGSGGGGSA[… human IgG4 Fc with changes …]GGGSGSAHPIPDSSPLLQFGGQVRQRYLYTDDACQTEAHLEIREDGTVGGAADQSPESLLQLKALKPGVIQILGVKTSRFLCQRPDGALYGSLHFDPEACSFRELLLEDGYNVYQSEAHGLPLHLPGCKSPHRDPAPRGPARFLPLPGLPPAPPEPPGILAPQPPDVGSSDPLSMVGSQGRSPSYAS
B9: GLP-1RA/FGF21 Fc fusion protein SEQ ID NO: 112 (Fc fusion)
chain: HGEGTFTSDKSQLLEKRLAHLFIEWLLAGGPSSGRPPPKGGGGGGGSGGGGSGGGGSA[… human IgG4 Fc with changes …]GGGSGSAHPIPDSSPLLQFGGQVRQRYLYTDDACQTEAHLEIREDGTVGGAADQSPESLLQLKALKPGVIQILGVKTSRFLCQRPDGALYGSLHFDPEACSFRELLLEDGYNVYQSEAHGLPLHLPGCKSPHRDPAPRGPARFLPLPGLPPAPPEPPGILAPQPPDVGSSDPLSMVGSQGRSPSYAS
B10: GLP-1RA/FGF21 Fc fusion protein SEQ ID NO: 136 (Fc fusion)
chain: HGEGTFTSDKSKLLEKRLAHLFIEWLLAGGHSKGKPPPKGGGGGGGSGGGGSGGGGSA[… human IgG4 Fc with changes …]GGGSGSAHPIPDSSPLLQFGGQVRQRYLYTDDACQTEAHLEIREDGTVGGAADQSPESLLQLKALKPGVIQILGVKTSRFLCQRPDGALYGSLHFDPEACSFRELLLEDGYNVYQSEAHGLPLHLPGCKSPHRDPAPRGPARFLPLPGLPPAPPEPPGILAPQPPDVGSSDPLSMVGSQGRSPSYAS
B11: GLP-1RA/FGF21 Fc fusion protein SEQ ID NO: 121 (Fc fusion)
chain: HGEGTFTSDKSQLLEKRLAHLFIEWLIAGGPSSGRYPPKGGGGGGGSGGGGSGGGGSA[… human IgG4 Fc with changes …]GGGSGSAHPIPDSSPLLQFGGQVRQRYLYTDDACQTEAHLEIREDGTVGGAADQSPESLLQLKALKPGVIQILGVKTSRFLCQRPDGALYGSLHFDPEACSFRELLLEDGYNVYQSEAHGLPLHLPGCKSPHRDPAPRGPARFLPLPGLPPAPPEPPGILAPQPPDVGSSDPLSMVGSQGRSPSYAS
B12: GLP-1RA/FGF21 Fc fusion protein SEQ ID NO: 113 (Fc fusion)
chain: YGEGTFTSDKSQLLEKRLAHLFIEWLIKGGHSSIRPPPKGGGGGGGSGGGGSGGGGSA[… human IgG4 Fc with changes …]GGGSGSAHPIPDSSPLLQFGGQVRQRYLYTDDACQTEAHLEIREDGTVGGAADQSPESLLQLKALKPGVIQILGVKTSRFLCQRPDGALYGSLHFDPEACSFRELLLEDGYNVYQSEAHGLPLHLPGCKSPHRDPAPRGPARFLPLPGLPPAPPEPPGILAPQPPDVGSSDPLSMVGSQGRSPSYAS
B13: GLP-1RA/FGF21 Fc fusion protein SEQ ID NO: 128 (Fc fusion)
chain: HGEGTFTSDKSQLLEKRLAHLFIEWLIKGGHSKGKYPPKGGGGGGGSGGGGSGGGGSA[… human IgG4 Fc with changes …]GGGSGSAHPIPDSSPLLQFGGQVRQRYLYTDDACQTEAHLEIREDGTVGGAADQSPESLLQLKALKPGVIQILGVKTSRFLCQRPDGALYGSLHFDPEACSFRELLLEDGYNVYQSEAHGLPLHLPGCKSPHRDPAPRGPARFLPLPGLPPAPPEPPGILAPQPPDVGSSDPLSMVGSQGRSPSYAS
B14: GLP-1RA/FGF21 Fc fusion protein SEQ ID NO: 130 (Fc fusion)
chain: HGEGTFTSDKSQLLEKELAHLFIEWLLAGGHSKGKPPPKGGGGGGGSGGGGSGGGGSA[… human IgG4 Fc with changes …]GGGSGSAHPIPDSSPLLQFGGQVRQRYLYTDDACQTEAHLEIREDGTVGGAADQSPESLLQLKALKPGVIQILGVKTSRFLCQRPDGALYGSLHFDPEACSFRELLLEDGYNVYQSEAHGLPLHLPGCKSPHRDPAPRGPARFLPLPGLPPAPPEPPGILAPQPPDVGSSDPLSMVGSQGRSPSYAS
B15: GLP-1RA/FGF21 Fc fusion protein SEQ ID NO: 145 (Fc fusion)
chain: HGEGTFTSDKSQLLEKRLAHLFIEWLIKGGHSSIRPPPKGGGGGGGSGGGGSGGGGSA[… human IgG4 Fc with changes …]GGGSGSAHPIPDSSPLLQFGGQVRQRYLYTDDACQTEAHLEIREDGTVGGAADQSPESLLQLKALKPGVIQILGVKTSRFLCQRPDGALYGSLHFDPEACSFRELLLEDGYNVYQSEAHGLPLHLPGCKSPHRDPAPRGPARFLPLPGLPPAPPEPPGILAPQPPDVGSSDPLSMVGSQGRSPSYAS
B16: GLP-1RA/FGF21 Fc fusion protein SEQ ID NO: 107 (Fc fusion)
chain: YGEGTFTSDKSQLLEERLAHLFIEWLIAGGHSKIRPPPKGGGGGGGSGGGGSGGGGSA[… human IgG4 Fc with changes …]GGGSGSAHPIPDSSPLLQFGGQVRQRYLYTDDACQTEAHLEIREDGTVGGAADQSPESLLQLKALKPGVIQILGVKTSRFLCQRPDGALYGSLHFDPEACSFRELLLEDGYNVYQSEAHGLPLHLPGCKSPHRDPAPRGPARFLPLPGLPPAPPEPPGILAPQPPDVGSSDPLSMVGSQGRSPSYAS
B17: GLP-1RA/FGF21 Fc fusion protein SEQ ID NO: 124 (Fc fusion)
chain: HGEGTFTSDKSKLLEKRLAHLFIEWLIAGGHSKGKPPPKGGGGGGGSGGGGSGGGGSA[… human IgG4 Fc with changes …]GGGSGSAHPIPDSSPLLQFGGQVRQRYLYTDDACQTEAHLEIREDGTVGGAADQSPESLLQLKALKPGVIQILGVKTSRFLCQRPDGALYGSLHFDPEACSFRELLLEDGYNVYQSEAHGLPLHLPGCKSPHRDPAPRGPARFLPLPGLPPAPPEPPGILAPQPPDVGSSDPLSMVGSQGRSPSYAS

What follows are binders tested against human glucagon-like peptide-1 (GLP-1) receptor (human, UniProt P43220 24-463) (assay: cell-based or functional assay).

Row | Binder | HTRF cAMP EC50
1 | B1 | 0.0589 nM
2 | B2 | 0.015 nM
3 | B3 | 0.0484 nM
4 | B4 | 0.0404 nM
5 | B5 | 0.0665 nM
6 | B6 | 0.0835 nM
7 | B7 | 0.17 nM
8 | B8 | 0.00812 nM
9 | B9 | 0.00723 nM
10 | B10 | 0.0118 nM
11 | B11 | 0.0119 nM
12 | B12 | 0.159 nM
13 | B13 | 0.00983 nM
14 | B14 | 0.00738 nM
15 | B15 | 0.00763 nM
16 | B16 | 0.186 nM
17 | B17 | 0.0106 nM
